Measurements: PubChem BioAssay AID1345083 (National Center for Advancing Translational Sciences (NCATS), 2018)
In all, about 94,000 compounds went through this assay and about 6,200 (6.6%) were called active. This list was built around the results that the source calls inconclusive (neither active nor inactive); the mix of calls is not that of the screen. Calls follow the shape of the dose curve; as a rule, active = well fitted inhibition curve with a large enough effect; inconclusive = small, poorly fitted or top-dose-only effect; inactive = flat fitted curve, though single readings scatter. Where the call is inconclusive, the potency comes from a doubtful curve fit.

assay: Cytotoxic Profiling in HEK 293 Cell Line of Diverse Libraries Using Quantitative High-Throughput Screening; conditions: HEK 293 viability, ATP luminescence (CellTiter-Glo), 48-72 h; series mostly up to 115 µM; also: nearly all actives have a fitted effect of over 60% in size
From the text: Cell-based phenotypic screening is a commonly used approach to discover biological pathways, novel drug targets, chemical probes and high-quality hit-to-lead molecules. Many hits identified from high-throughput screening campaign are ruled out through a series of follow-up potency, selectivity/specificity, and cytotoxicity assays. Prioritization of molecules with little or no cytotoxicity for a more in-depth downstream evaluation influence the future direction of projects, so cytotoxicity profiling of the screening libraries at early stage is essential for increasing the likelihood of candidate success. In this study, we analyzed results from a cell-based cytotoxicity screening campaign, comprising nearly 10,000 compounds in NCATS annotated libraries, and over 100,000 compounds in a diversity library, evaluated in four normal cell lines (HEK 293, NIH 3T3, CRL-7250 and HaCat) and a cancer cell line (KB 3-1, a HeLa subline) with overall screening outcomes, hit rates, pan-activity and selectivity. For the annotated library, we also examined the primary targets and mechanistic pathways regularly associated with cell death. To our knowledge, this is the first study to use high-throughput screening to profile large libraries for cytotoxicity assessment in both normal and cancer cell lines. In summary, the results generated here constitutes a valuable resource for the scientific community and provides insight on identifying cytotoxic compounds with particular mechanisms of action, and prioritizing compounds with suitable cytotoxicity profile for further evaluation.
HEK 293 cells were seeded into white 1536-well plates using a Multidrop Combi peristaltic dispenser (ThermoFisher, Waltham, MA) at a density of 250 cells/well in 5 uL of medium respectively. A pintool (Kalypsys) was used to transfer 23 nL of compound solution to the 1536-well assay plates. After 48 or 72 hr incubation at 37 degree Celsius, 5% CO2 and 95% humidity, 2.5 uL of CellTiter-Glo (Promega) was dispensed into each well using a dispenser (Aspect Automation, St. Paul, MN) with solenoid valves (Lee Valves, Westbrook CT). Plates were left at room temperature for 10 min before imaging the ATP-coupled luminescence using a ViewLux microplate imager (PerkinElmer, Waltham, MA).
Potency is read from the fitted curve at half-maximal effect; tags tell the direction and shape of the fitted curve.

| Compound | Potency |
| --- | --- |
| CCCCn1c(=O)c(C(=O)N2CCN(C(=O)N(C)C)CC2)nc2cccnc21 | inactive |
| CN1C(=O)C(CC(=O)NCc2cccs2)Sc2ncccc21 (stereo unspecified) | inactive |
| Cc1ccc(C(=O)N2CCC(Oc3ccc(C(N)=O)cn3)CC2)cc1C | inconclusive: 50.1 µM [inhibitor, partial curve, poor fit] |
| O=C(N1CC[C@@H](c2ccc3ccccc3c2)[C@H](O)C1)C1(Cn2ccnc2)CC1 | inconclusive: 89.1 µM [inhibitor, single point] |
| COc1cccc(NC(=O)NC[C@H]2O[C@@H](CO)[C@@H](O)[C@H]2N(C)CCN(C)C)c1 | inactive |
| O=C(CCCN1C(=O)COc2ccc(C(=O)COc3cccc(Cl)c3)cc21)NCC1CC1 | inconclusive: 39.8 µM [inhibitor, partial curve, poor fit] |
| COCC1CN(Cc2ccc(C(C)C)cc2)CC12CCNCC2 (stereo unspecified) | active: 44.7 µM |
| COc1ccc(CNC(=O)Cn2c(-c3ccccc3)nc(C)c(CCO)c2=O)cc1 | inconclusive: 44.7 µM [inhibitor, partial curve, poor fit] |
| CCOc1cccc(-c2nnc(CCC(=O)N3CCC(Cc4ccccc4)CC3)c(=O)[nH]2)c1 | inconclusive: 44.7 µM [inhibitor, partial curve] |
| Cc1nn2c(c1-c1cccnc1N1CCOCC1)N(Cc1ccccc1F)CCC2 | inconclusive: 112 µM [inhibitor, partial curve, poor fit] |
| CCN(Cc1nccn1C)C(=O)c1coc(COc2ccc3c(c2)OCO3)n1 | inconclusive: 100 µM [inhibitor, partial curve, poor fit] |
| CN(C)CCNC(=O)c1nc2nc(-c3ccccc3)c(-c3ccc(Cl)cc3)cc2n1C | active: 39.8 µM |
| COc1ccc(C(=O)N2CCC3(Cc4ccccc4NC3=O)C2)cc1 (stereo unspecified) | inconclusive: 112 µM [inhibitor, partial curve, poor fit] |
| CCN(Cc1cccc(OCCO)c1)CC1CCCN(CCc2cccc(OC)c2)C1 (stereo unspecified) | inconclusive: 17.8 µM [inhibitor, full curve, poor fit] |
| COc1cccc(CN2Cc3cc(NC(=O)c4cc(OC)cc(OC)c4)ccc3OCC2=O)c1 | inconclusive: 35.5 µM [inhibitor, partial curve, poor fit] |
| CCCCOc1ccc(C(=O)N2CCC(c3n[nH]c(=O)n3-c3ccccc3)CC2)cc1 | inconclusive: 50.1 µM [inhibitor, partial curve, poor fit] |
| Cn1ncc2c(C(=O)NC3CC3)cc(-c3ccc(Cl)cc3Cl)nc21 | inconclusive: 70.8 µM [inhibitor, partial curve, poor fit] |
| Cc1nnc(-c2cc(-c3ccccc3Oc3ccccc3)ccn2)n1Cc1cccnc1 | inconclusive: 50.1 µM [inhibitor, partial curve, poor fit] |
| Cc1ccc(-c2c(C(=O)NCCc3ccccc3F)nc3sccn23)cc1 | inconclusive: 79.4 µM [inhibitor, partial curve, poor fit] |
| Cn1nc(C2CCCNC2)c2c(C(=O)NC3CC3)cc(C3CC3)nc21 (stereo unspecified) | inactive |
| CCS(=O)(=O)N1C[C@@H](Oc2ccccc2)C[C@H]1C(=O)NC | inactive |

| Compound | Potency |
| --- | --- |
| CNC(=O)CCn1ncc2cc(OCc3ccccc3-c3cccnc3OC)ccc21 | inconclusive: 79.4 µM [inhibitor, partial curve, poor fit] |
| O=c1c2c(CO)c(-c3ccc(F)cc3)nn2ccn1CCOc1ccccc1 | inconclusive: 50.1 µM [inhibitor, partial curve, poor fit] |
| Cn1cnc(C(=O)N2CCC3(CC2)CC(N(Cc2ccc(F)cc2)C2CC2)CCO3)c1 (stereo unspecified) | inactive |
| CN(Cc1ccc(C2CCCCO2)s1)CC1CCN(CCc2ccc(F)cc2)CC1 (stereo unspecified) | active: 44.7 µM |
| COc1ccc(C(C)NC(=O)c2noc(-c3ccc(C)cc3)n2)cc1 (stereo unspecified) | inconclusive: 70.8 µM [inhibitor, single point] |
| O=C(CCn1cccn1)N1CCC2(CC1)CN(Cc1ccccc1)CC2CO (stereo unspecified) | inconclusive: 89.1 µM [inhibitor, partial curve, poor fit] |
| Cn1cccc1CN1CCC2(CN[S+](=O)([O-])c3ccccc3N2)C1 (stereo unspecified) | inconclusive: 126 µM [inhibitor, single point] |
| CN(C)c1cccc(-c2cc3c(cn2)CN(Cc2ccncc2)CCN3)c1 | inconclusive: 35.5 µM [inhibitor, partial curve, poor fit] |
| CC(C)c1cc(N2C[C@H](O)[C@@H](N3CCCCC3)C2)n2nccc2n1 | inactive |
| COc1ccc(NC(=O)N2CCC3(CC2)SCC(=O)N3c2ccc(OC)cc2)cc1 | inconclusive: 100 µM [inhibitor, single point] |
| CCC(CC)n1ncc(C)c1NC(=O)CC(c1ccccc1)c1ccco1 (stereo unspecified) | inconclusive: 39.8 µM [inhibitor, full curve] |
| COc1ccc(-c2cnc3[nH]cc(CC(=O)N4CCCC4)c3c2)cc1 | active: 70.8 µM |
| C=CCOCC(O)CN1CCC(=O)N(CC2CC2)Cc2cc(F)ccc21 (stereo unspecified) | inconclusive: 89.1 µM [inhibitor, single point] |
| CCc1nc2c(c(-c3ccc(Cl)cc3)n1)CN(Cc1ccc(OC(F)(F)F)cc1)CC2 | inconclusive: 56.2 µM [inhibitor, partial curve, poor fit] |
| CCOc1ccc2c(n1)CCN(C(=O)Nc1cc(C)cc(C)c1)C2 | inconclusive: 50.1 µM [inhibitor, partial curve, poor fit] |
| Cc1ncsc1CN1C(=O)CO[C@H](c2ccc(NS(C)(=O)=O)cc2)[C@H]1CO | inactive |
| COc1cccc(CNC(=O)c2cc(-c3ccsc3)nc3c2cnn3C)c1 | active: 56.2 µM |
| CCC1Oc2ccc(NC(=O)c3ccccc3OC)cc2CN(Cc2ccc(OC)cc2)C1=O (stereo unspecified) | inconclusive: 44.7 µM [inhibitor, partial curve, poor fit] |
| COc1ccc(-c2nc(C3CC3)nc3c2CCN(Cc2ccc(F)cc2)CC3)cc1 | inconclusive: 89.1 µM [inhibitor, single point] |
| C=CCN(CC=C)Cc1c(C(=O)N2CCN(C3CCCCC3)CC2)nc2ccccn12 | inconclusive: 22.4 µM [inhibitor, full curve] |
| Cc1cccc(NC(=O)CC2CCCN(c3cnn(CC4CC4)c(=O)c3)C2)c1 (stereo unspecified) | inconclusive: 79.4 µM [inhibitor, single point] |

| Compound | Potency |
| --- | --- |
| Cc1cnc(C(=O)N2CCC3(CC2)CC(N(Cc2ccccc2)C2CC2)CCO3)cn1 (stereo unspecified) | inconclusive: 89.1 µM [inhibitor, single point] |
| Cc1cc2c(c(=O)n(-c3ccc(F)cc3)c(=O)n2CC(=O)Nc2ccc(F)cc2)n1C | inconclusive: 56.2 µM [inhibitor, partial curve, poor fit] |
| Cc1ccc(-n2c(C3CCN(C(=O)c4ccc(C(C)(C)C)cc4)CC3)n[nH]c2=O)cc1 | inconclusive: 50.1 µM [inhibitor, partial curve, poor fit] |
| Cn1ncc2c(C(=O)NCCCc3ccccc3)cc(-c3ccc(Cl)cc3)nc21 | inconclusive: 35.5 µM [inhibitor, full curve, poor fit] |
| c1ccc(CCN(Cc2ccccc2)[C@H]2C[C@H]3CCOC[C@@]3(c3ccccc3)C2)cc1 | inconclusive: 100 µM [inhibitor, partial curve, poor fit] |
| COc1ccc(OCc2nc(C3CN(C(=O)Cc4c[nH]c5ccccc45)C3)no2)cc1 | active: 44.7 µM |
| O=C(Nc1ccc2c(c1)OCCO2)N1CCC2(CC1)CC(Cc1ccccc1)CCO2 (stereo unspecified) | inconclusive: 44.7 µM [inhibitor, partial curve, poor fit] |
| COc1ccccc1-c1ccc(CN2CCCCC2C(=O)NCc2ccc3c(c2)OCO3)cc1 (stereo unspecified) | active: 25.1 µM |
| CCC1Oc2ccc(NC(=O)COc3ccccc3)cc2CN(Cc2ccc(OC)cc2)C1=O (stereo unspecified) | inconclusive: 35.5 µM [inhibitor, full curve] |
| CCn1cnnc1CC1CCCN(C(=O)Nc2ccc(C(=O)OC)cc2)C1 (stereo unspecified) | inactive |
| Cc1ccc(-c2cc(C(=O)NCc3c(C)cc(C)[nH]c3=O)c3c(c2)N(C)CCO3)cc1 | inconclusive: 100 µM [inhibitor, partial curve, poor fit] |
| O=C(NCCc1ccccc1)C1CCCN(C2CCN(Cc3ccncc3)CC2)C1 (stereo unspecified) | inconclusive: 44.7 µM [inhibitor, partial curve, poor fit] |
| CC1CCC2(CC1)NC(=O)N(CC(=O)Nc1ccccc1F)C2=O (stereo unspecified) | inconclusive: 12.6 µM [inhibitor, full curve] |
| O=C(Nc1ccccc1)N1CCCCC1c1noc(COc2ccc(F)cc2)n1 (stereo unspecified) | inconclusive: 50.1 µM [inhibitor, partial curve, poor fit] |
| COc1ccc(C(=O)NC2CCN(Cc3ccc(-c4ccccc4OC)cc3)C2)cc1 (stereo unspecified) | inconclusive: 17.8 µM [inhibitor, full curve, poor fit] |
| CCOc1ccc(CC(=O)N2CCC[C@H]2c2nc(-c3ccc(OC)c(OC)c3)no2)cc1OCC | inconclusive: 79.4 µM [inhibitor, single point] |
| O=C(NCCOc1ccccc1)c1cnc2c(c1)N(C(=O)Cc1cccc(C(F)(F)F)c1)CCC2 | inconclusive: 79.4 µM [inhibitor, partial curve] |
| CN(C)c1ccc(-n2cnc3cccnc32)cc1 | inconclusive: 100 µM [inhibitor, partial curve] |
| Cc1cccc(N2Cc3c(ncnc3N3CCC(c4ccccc4)CC3)N(C)CC2=O)c1 | inconclusive: 44.7 µM [inhibitor, partial curve, poor fit] |
